From PMC4336329 (PLoS ONE, 2015)
About 2,200 (0.71%) of roughly 310,000 compounds showed an effect of 50% or more. The effect is printed as a negative number. The list shows a part of the results.

Target: human ether-à-go-go-related gene (hERG) potassium channel (human, UniProt Q12809)
Assay: primary screen, population patch clamp on CHO cells stably expressing hERG

human ether-à-go-go-related gene (hERG) potassium channel, sequence (Q12809 whole entry, looked up): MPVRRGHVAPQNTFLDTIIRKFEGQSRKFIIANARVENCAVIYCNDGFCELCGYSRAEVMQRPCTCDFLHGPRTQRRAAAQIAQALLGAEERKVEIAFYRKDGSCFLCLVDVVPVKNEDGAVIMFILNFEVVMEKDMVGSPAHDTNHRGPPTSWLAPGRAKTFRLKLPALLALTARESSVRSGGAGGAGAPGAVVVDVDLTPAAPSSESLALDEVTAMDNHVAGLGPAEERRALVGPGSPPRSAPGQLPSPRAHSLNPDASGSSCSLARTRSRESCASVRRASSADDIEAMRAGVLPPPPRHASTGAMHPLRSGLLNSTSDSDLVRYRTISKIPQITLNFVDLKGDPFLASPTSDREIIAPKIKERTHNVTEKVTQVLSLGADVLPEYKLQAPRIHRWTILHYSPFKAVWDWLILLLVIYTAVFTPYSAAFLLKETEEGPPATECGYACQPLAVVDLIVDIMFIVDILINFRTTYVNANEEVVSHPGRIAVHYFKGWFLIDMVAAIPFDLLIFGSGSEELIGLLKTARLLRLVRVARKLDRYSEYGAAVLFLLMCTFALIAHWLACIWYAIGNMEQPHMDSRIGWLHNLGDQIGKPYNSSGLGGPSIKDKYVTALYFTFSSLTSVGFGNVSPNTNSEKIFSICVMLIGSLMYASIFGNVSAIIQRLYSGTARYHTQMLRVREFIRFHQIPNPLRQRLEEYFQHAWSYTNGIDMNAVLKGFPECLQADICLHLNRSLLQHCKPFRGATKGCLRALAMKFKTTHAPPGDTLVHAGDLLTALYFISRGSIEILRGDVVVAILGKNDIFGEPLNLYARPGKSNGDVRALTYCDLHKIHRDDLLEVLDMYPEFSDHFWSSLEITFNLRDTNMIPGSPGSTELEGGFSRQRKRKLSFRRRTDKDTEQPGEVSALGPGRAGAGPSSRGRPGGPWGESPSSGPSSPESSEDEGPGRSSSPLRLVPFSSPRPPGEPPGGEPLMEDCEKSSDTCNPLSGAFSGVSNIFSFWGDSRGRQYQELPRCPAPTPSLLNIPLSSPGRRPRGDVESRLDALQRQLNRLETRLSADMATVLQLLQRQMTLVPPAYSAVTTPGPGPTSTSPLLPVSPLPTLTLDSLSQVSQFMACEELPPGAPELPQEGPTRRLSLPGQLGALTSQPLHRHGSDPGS

Row | Compound | hERG current change (%, negative = inhibition) at 1uM
1 | COc1ccc(CCn2c(-c3ccc(C(C)(C)C)cc3)n[nH]c2=S)cc1OC | 9.83%
2 | COc1cc(-c2cc(C(=O)O)c3c(OC)c(OC)c(OC)cc3n2)ccc1O | 9.62%
3 | Cc1nn2c(=O)c3c4c(sc3nc2n1-c1ccccc1)COC(C)(C)C4 | 9.75%
4 | COc1ccc(C(=O)c2ccc(N(C)C)cc2)c(OC)c1 | -0.697%
5 | CC(=O)N(CC(=O)O)c1ccccc1C(=O)O | 7.66%
6 | CNc1ccccc1 | 10.4%
7 | Cc1cc(/C=N/Nc2ccc([N+](=O)[O-])cn2)c(C)n1-c1ccccc1 | 11.6%
8 | Cc1ccc(C)c(NC(=O)C2C3CCCC2C3c2ccccc2)c1 (stereo not shown) | 11.4%
9 | N#Cc1cc2ccccc2nc1SCC(=O)Nc1ccccc1N1CCOCC1 | 14.7%
10 | CC1=CC(c2ccccc2)n2nc(N3C(=O)c4ccccc4C3=O)nc2N1 (stereo not shown) | 15.2%
11 | CCn1c(Cc2ccccc2)nnc1SCC(=O)NC1CCCC1 | 23.6%
12 | Cc1ccc(-c2cc(C(=O)N3CCN(C(=O)c4ccco4)CC3)[nH]n2)c(C)c1 | -14.1%
13 | Cc1cc(C)cc(N(C(=O)c2ccco2)C(C(=O)NC2CCCC2)c2ccncc2)c1 (stereo not shown) | -3.5%
14 | CCCCC(=O)Nc1ccc(C(=O)N2CCCC(C(=O)OCC)C2)cc1 (stereo not shown) | 11.4%
15 | COc1cc(CC2(CCc3ccncc3)C(=O)NC(=O)NC2=O)cc(OC)c1OC | 16.3%
16 | CCC(=O)Nc1ccc(NC(=O)CSc2nnnn2-c2cccnc2)cc1C | 11.4%
17 | COc1cccc(-c2c(C#N)c(N)nc3c2c(=O)nc2sccn23)c1 | 12.9%
18 | CC1CCN(c2c(NCC3CCC(C(=O)NCc4ccccc4Cl)CC3)c(=O)c2=O)CC1 (stereo not shown) | 6.87%
19 | COc1ccccc1N1CCN(C(=O)c2cc(-c3ccc(F)cc3)[nH]c2C)CC1 | -22%
20 | Cc1ccc(N=Nc2c(N)n[nH]c2N)cc1 | 17.8%
21 | CN(C)C(=O)c1cccn(Cc2cccc(C(F)(F)F)c2)c1=O | 12.1%
22 | Cc1ccc(S(=O)(=O)N2CC(=O)Nc3ccccc32)c(C)c1NS(C)(=O)=O | 8.93%

Row | Compound | hERG current change (%, negative = inhibition) at 1uM
23 | Cc1ccc(S(=O)(=O)NCC(=O)NCC(=O)NCCc2ccccc2F)cc1C | 5.69%
24 | Cl.Fc1ccccc1/C=N/N1CCN(Cc2ccccc2Cl)CC1 | 20.8%
25 | COc1ccc2[nH]c(CN3CCN(CCC(C)C)C(CCO)C3)c(C)c2c1 (stereo not shown) | 15.3%
26 | COc1cc2cc(C(=O)O)n(C)c2c(OC)c1OC | 5.22%
27 | O=C(O)COc1ccc(/C=C/c2nc(-c3ccccc3O)n[nH]2)cc1 | 16.2%
28 | CCc1ccc(N2C(=O)CC(N(CC3CCCO3)C(=O)/C=C/C(=O)O)C2=O)cc1 (stereo not shown) | 17.9%
29 | Cc1cc(C(=O)N2CCN(c3ccccn3)CC2)no1 | -4.85%
30 | CC1=NCCc2c1[nH]c1cc(O)ccc21.Cl.O | 11.7%
31 | CCNC(=S)N/N=C/c1cc(C)ccc1C | 17.5%
32 | NC(=O)c1cc([N+](=O)[O-])ccc1NCc1ccc(O)cc1 | 7.53%
33 | Cc1ccc(SCCNC(=O)CN2C(=O)c3ccccc3S2(=O)=O)cc1 | 3.33%
34 | Cc1cc(C)c(C#N)c(SCCS(=O)(=O)Cc2ccccc2)n1 | 20.3%
35 | COCCN(CCOC)c1ncnc2c1cnn2-c1ccc(Cl)cc1 | 1.34%
36 | Nc1nc2n(n1)C(c1ccco1)CC(c1ccc(Cl)cc1Cl)N2 (stereo not shown) | -1.45%
37 | CCCCCCN1CCN(c2ccc(Cl)cc2)CC1 | -0.331%
38 | CCc1nnc(NC(=O)c2n[nH]c(=O)c3ccccc23)s1 | 11.1%
39 | CCCCn1c(=O)c(C=Nc2cc([N+](=O)[O-])ccc2OC)c(O)n(CCCCl)c1=O | -27.1%
40 | COc1cccc(CNC(=O)CC2C(=O)NCCN2CCCc2ccccc2)c1 (stereo not shown) | 9.23%
41 | C(=N\Nc1ccccc1)/c1ccc(N2CCOCC2)cc1 | 9.73%
42 | CC(=O)Nc1ccc(S(=O)(=O)Nc2cccc(-n3cnnn3)c2)cc1 | 13.9%
43 | CCOP(=O)(OCC)C(O)c1cc(OC)c(OC)c(OC)c1 (stereo not shown) | 7.67%
44 | Cn1c(N)c(C(=O)COC(=O)CCCOc2ccc(Cl)cc2Cl)c(=O)n(C)c1=O | 16%

Row | Compound | hERG current change (%, negative = inhibition) at 1uM
45 | COc1ccccc1NC(=S)N(Cc1ccccc1)Cc1cccs1 | 6.04%
46 | Cc1cc(C)c(S(=O)(=O)N2CCN(C(=O)N(C)C)CC2)c(C)c1 | 12.9%
47 | CCOc1cc2[nH]c(=S)n(CCCN(CC)CC)c(=O)c2cc1OCC | -10.4%
48 | COCCNc1nc(-c2cc(-c3ccc(Cl)cc3)on2)cc(C(C)C)n1 | 19.1%
49 | O=C(O)C1CCCCC1C(=O)NC1C2CC3CC(C2)CC1C3 (stereo not shown) | 16.4%
50 | O=C(CSc1nc(-c2ccccc2)c(-c2ccccc2)[nH]1)NCCN1C(=O)CSC1=O | 8.01%
51 | Cc1ccc(F)cc1NC(=O)C1CC(=O)N(CCc2ccccc2)C1 (stereo not shown) | 2.97%
52 | O=C(Cn1ccc(C(F)(F)F)n1)N=Nc1c(O)[nH]c2ccccc12 | 6.83%
53 | CN(C)S(=O)(=O)c1ccc(N2CCCC2)c(C(=O)Nc2ccc(C(N)=O)cc2)c1 | 0.977%
54 | Nn1c(SCC(=O)Nc2ccccc2)nnc1-c1cccnc1 | -2.5%
55 | CCOC(=O)c1sc2nc(CSc3ccccc3)nc(N3CCCN(C)CC3)c2c1C.O=C(O)C(=O)O | -8.48%
56 | COc1ccc(-c2coc3cc4oc(=O)cc(C)c4cc23)cc1F | 3.54%
57 | CSCCC(NC(=O)c1ccccc1Cl)C(=O)N(C)CC(=O)Nc1ccc(N2CCOCC2)cc1 (stereo not shown) | 9.96%
58 | CCn1c2ccccc2c2cc(NC(=O)C(C)Oc3ccc(OC)cc3)ccc21 (stereo not shown) | 19.4%
59 | Cc1c(CCC(=O)N2CCC[C@H]2C(=O)O)c(=O)oc2c(C)c3oc4c(c3cc12)CCCC4 | 21.1%
60 | CCN(CC)C(=O)CCSc1nnc(-c2ccncc2)o1 | 4.3%
61 | C=CCO/N=C(/C)c1c(O)c(CC)c(-c2ccccc2)n(-c2ccccc2)c1=O | 12%
62 | Cc1ccc(CNC(=O)C2CCN(C(=O)Nc3ccccc3)CC2)cc1 | 3.04%
63 | c1ccc(C(c2ccccc2)c2noc(CN3CCC(c4ccncc4)CC3)n2)cc1 | 4.77%
64 | CC(=O)C1=C(O)C(=O)N(c2ccc(S(N)(=O)=O)cc2)C1c1ccc([N+](=O)[O-])cc1 (stereo not shown) | 9.54%
65 | CCOc1ccccc1NC(=O)CN(C)S(=O)(=O)c1ccc2[nH]c(=O)oc2c1 | 8.9%
66 | CC(=O)c1cccc(NC(=O)c2cc3ccccn3n2)c1 | 1.31%

Row | Compound | hERG current change (%, negative = inhibition) at 1uM
67 | O=C(CN1CCCCC1)Nc1ccccc1-c1ccccc1 | 14.4%
68 | O=C(Nc1ccnn1C1CCN(Cc2ccc(CO)o2)CC1)c1ccc2c(c1)OCO2 | 11%
69 | O=C(CSCc1ccccc1Br)N/N=C/c1ccc(OCC(=O)N2CCCCC2)cc1 | 12.4%
70 | Cc1nn(CC(=O)NC2(C#N)CCCCC2)c(C)c1[N+](=O)[O-] | 3.12%
71 | CCC(=O)Nc1ccc2c(c1)ncn2-c1ccccc1 | 12.3%
72 | COCCNc1ccnc2c(Cl)cccc12 | -40%
73 | COCCNC(=S)NC(=O)CC12CC3CC(CC(C3)C1)C2 | 4.32%
74 | Cc1cc2occ(CC(=O)N(C)CC(=O)Nc3ccccc3Br)c2cc1C | 11.9%
75 | CC(=O)c1ccc(S(=O)(=O)N(Cc2cc3cc4c(cc3[nH]c2=O)OCCO4)CC2CCCO2)cc1 (stereo not shown) | 7.51%
76 | Cc1cc(C)c2[nH]c(=O)c(CN(Cc3ccc4c(c3)OCO4)Cc3nnnn3C3CCCC3)cc2c1 | 9.27%
77 | CN(C)S(=O)(=O)c1ccc(N2C(=O)CC2(/C=C/c2ccccc2)C(=O)NC2CCCC2)cc1 (stereo not shown) | 33.5%
78 | OC1CCCN(c2ncnc3c2nnn3Cc2c(F)cccc2Cl)C1 (stereo not shown) | 7.5%
79 | Cn1c(C(=O)N2CCN(c3ccccc3)CC2)cc2cc(Cl)ccc21 | 14.3%
80 | Cc1ccc(S(=O)(=O)N(C)C)cc1NC(=O)CN1CCN(Cc2ccccc2)CC1.Cl | 3.57%
81 | Nc1nc(SCC(=O)Nc2cccc(S(=O)(=O)N3CCCCCC3)c2)n[nH]1 | 6.11%
82 | CCN(C(=O)CSc1ncn[nH]1)c1c(N)n(Cc2ccccc2)c(=O)[nH]c1=O | 16.2%
83 | O=C(NCc1ccc2c(c1)OCO2)c1ccc(Cl)c(S(=O)(=O)N2CCOCC2)c1 | -8.32%
84 | Nc1cc(-c2ccccc2)nn1Cc1ccc(Cl)cc1 | -2.88%
85 | COc1ccc(C(=O)NNS(=O)(=O)c2ccc(OC)cc2)cc1 | 7.96%
86 | O=c1cnc2ccccc2n1CC1CCCCC1 | 15.5%
87 | COc1cc(/C=C/C(=O)O)cc(S(=O)(=O)NCCCO)c1OC | 9.06%
88 | COC(=O)c1cn(Nc2ncc(C(F)(F)F)cc2Cl)c(=O)c2ccccc12 | 10.2%
